In US9801923B2, “Fusion proteins containing insulin-like growth factor-1 and epidermal growth factor and variants thereof and uses thereof” (IGF Oncology, LLC, priority 2014, dated 2017):

Target: IGF receptors (Homo sapiens, UniProt P08069)
Experiment: competition binding of refolded IGF fusion proteins to IGF receptors against radioactive wild type IGF
Details: Ni eluates refolded 3 hours at room temperature, read-out: approximate binding constants (KDs)
Experimental: 2 ml of each of the original Ni eluates from Example 1 was mixed with about an equal volume of 100 mM glycine, 6 M urea, pH 9.5, concentrated by ultrafiltration in a CENTRICON 3 kDa filter unit, then brought up again in that buffer and concentrated to about 420 ul. Then they were diluted to 2 mg/ml for 403IGF, 764IGF, and 765IGF, and 4 mg/ml for 784IGF and 2.4 mg/ml for 785IGF.
200 ul of each of these was mixed rapidly with 1.8 ml of refold buffer. Refold buffer was 1.4 M urea, 100 mM glycine, 0.5 M NaCl, 19% ethanol, 0.5 mM GSSG, 4 mM GSH, pH 9.5. They were refolded at room temperature for 3 hours, and then tested in a binding assay for competition binding to IGF receptors against […] radioactive wild type IGF (Perkin Elmer, Inc.) For comparison, commercial Long-R3-IGF (LR3IGF) was also tested.

Sequence of IGF receptors (P08069 31-736 limits assumed): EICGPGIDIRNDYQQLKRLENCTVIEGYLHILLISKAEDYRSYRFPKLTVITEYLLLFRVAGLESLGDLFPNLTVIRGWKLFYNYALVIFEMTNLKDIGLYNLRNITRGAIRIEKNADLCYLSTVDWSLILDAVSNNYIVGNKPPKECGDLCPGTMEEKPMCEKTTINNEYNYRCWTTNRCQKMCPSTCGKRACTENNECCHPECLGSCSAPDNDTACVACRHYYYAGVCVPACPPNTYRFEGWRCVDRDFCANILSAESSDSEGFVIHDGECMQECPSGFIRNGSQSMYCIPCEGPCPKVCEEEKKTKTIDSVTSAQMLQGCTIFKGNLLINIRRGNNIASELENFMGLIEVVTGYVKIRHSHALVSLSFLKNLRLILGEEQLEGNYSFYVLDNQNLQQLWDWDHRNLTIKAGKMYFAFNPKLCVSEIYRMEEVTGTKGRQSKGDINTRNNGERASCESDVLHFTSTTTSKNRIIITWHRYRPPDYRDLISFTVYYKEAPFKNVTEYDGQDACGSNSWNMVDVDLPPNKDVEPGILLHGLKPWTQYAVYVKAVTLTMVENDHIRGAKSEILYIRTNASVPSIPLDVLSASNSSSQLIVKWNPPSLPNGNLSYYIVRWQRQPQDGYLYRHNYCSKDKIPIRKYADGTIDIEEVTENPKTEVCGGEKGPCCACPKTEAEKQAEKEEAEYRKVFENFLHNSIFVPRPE
Sequence of IGF receptors (P08069 741-1367 partner limits assumed): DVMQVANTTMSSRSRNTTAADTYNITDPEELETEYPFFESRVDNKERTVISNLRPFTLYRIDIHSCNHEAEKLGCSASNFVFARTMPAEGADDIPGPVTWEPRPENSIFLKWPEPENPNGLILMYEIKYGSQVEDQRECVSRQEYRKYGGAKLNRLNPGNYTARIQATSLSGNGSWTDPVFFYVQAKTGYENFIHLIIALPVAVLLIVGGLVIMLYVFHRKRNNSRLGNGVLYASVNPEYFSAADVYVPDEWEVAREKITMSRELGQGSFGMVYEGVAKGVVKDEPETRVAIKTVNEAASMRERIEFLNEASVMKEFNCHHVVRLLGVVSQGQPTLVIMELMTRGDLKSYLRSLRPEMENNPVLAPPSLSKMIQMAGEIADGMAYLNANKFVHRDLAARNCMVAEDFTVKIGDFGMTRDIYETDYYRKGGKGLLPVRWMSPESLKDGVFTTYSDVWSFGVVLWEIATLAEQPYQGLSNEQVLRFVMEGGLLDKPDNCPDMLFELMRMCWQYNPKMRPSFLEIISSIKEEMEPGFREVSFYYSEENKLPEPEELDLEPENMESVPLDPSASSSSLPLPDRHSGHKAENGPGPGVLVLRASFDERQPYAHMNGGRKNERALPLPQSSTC

Kd: ~3 nM
B1: 784IGF: mutTrx-R3IGF fusion protein, SEQ ID NO: 15 (protein)
chain: MVKQIESKTAFQEALDAAGDKLVVVDFSATWCGHCKMIKPFFHSLSEKYSNVIFLEVDVDDSQDVASESEVKSMPTFQFFKKGQKVGEFSGANKEKLEATINELVGSKSGHHHHHHSAKG[about 80 residues omitted here]
